# Measured values taken from ChEMBL document CHEMBL4888484, “Replenishing the malaria drug discovery pipeline: Screening and hit evaluation of the MMV Hit Generation Library 1 (HGL1) against asexual blood stage Plasmodium falciparum ,using a nano luciferase reporter read-out” (2022).
# About 540 (0.36%) of roughly 150,000 compounds showed an effect of 50% or more. Some of the results follow.
# Test system: Plasmodium falciparum
# Assay: Primary screen in NF54 nanoGlo assay, in single point, at 2uM, 72h; a lower Z score goes with more inhibition
# Type: functional, Erythrocyte
# Details: timepoint 72 hour
SMILES,% Inhibition,Z score
COc1cccc(CC(=O)N2Cc3cccnc3C2)c1,-17%,2.01
CCCc1cc(CNS(=O)(=O)c2cc(-c3ccno3)ccc2OC)on1,-25%,2.17
CCCc1nc(C)c(CNC(=O)c2nc(C(C)C)cs2)s1,26%,-3.25
CCn1nc(C)c(CCN(C)C(=O)Nc2ccc3c(c2)OCCO3)c1C,-6%,0.63
COC(=O)N1CCC(NCc2c(C)c(C#N)n3ccccc23)CC1,-2%,0.37
Cc1ccc(-n2nc(C(=O)c3ccc(Cl)cc3)c(C#N)c2-c2ccccc2)cc1,-7%,0.78
CCOC(=O)Nc1ccc(Br)cn1,1%,-0.23
O=C(c1cc(=O)c(OCc2cccc(Cl)c2)c[nH]1)N1CCc2ccccc2C1,-3%,0.47
Fc1cccc2c(N3CCN(Cc4cccs4)CC3)ncnc12,-33%,5.4
O=C(Nc1ccc(Cl)cc1C(F)(F)F)[C@H](NC1CCCCCCC1)c1ccccc1,-14%,2.36
O=C(O)c1cncc(-n2ccnc2-c2ccnc3ccccc23)c1,-18%,2.85
COc1ccc(C/C(=N\NC(=O)OC(C)(C)C)NCC(F)(F)F)cc1,-3%,0.36
COCCN(CC1(C)CCOCC1)C(=O)NCc1cccc(F)c1,-10%,1.61
Cc1ccc(S(=O)(=O)N2C(=O)CC[C@H]2C(=O)N2CCC(Cc3ccccc3)CC2)cc1,-17%,2.35
CCOC(=O)[C@@H](c1cc(Cl)cc(Cl)c1)N(CC)Cc1csc(CC(=O)NC)n1,0%,-0.05
CN(Cc1ccccn1)c1ccc(C(=O)NC2CCCC2)nn1,0%,0.03
O=C(O)CN(CCc1ccc(Cl)cc1)CC1CC1,-4%,0.36
CCOC(=O)C1CCN(c2nc(-c3ccc4c(c3)OCO4)c3c(N)n(-c4ccc(Cl)cc4)nc3n2)CC1,-20%,2.92
Cc1nc(CC(=O)Nc2ccc(N3CCCCC3)cn2)c(C)s1,-8%,1.63
CCC[C@H](NC(=O)c1ccccc1)c1nc(-c2ccnn2C)cs1,4%,-0.42
O=C(COc1ccccc1Cl)NCc1cc2n(n1)CCCNC2,2%,-0.4
COC(=O)c1cn([C@H]2CCCC[C@@H]2O)nn1,-1%,0.14

SMILES,% Inhibition,Z score
COc1ccc(C)cc1S(=O)(=O)[C@H]1CS(=O)(=O)C[C@@H]1N1CCOCC1,6%,-0.79
Cc1nn(C)c(C)c1CCC(=O)N(Cc1ccco1)[C@@H](C)C(C)C,18%,-2.26
COC(=O)C1(NCc2ncccc2C)CCC1,4%,-0.47
O=C(Nc1nc2ccc(F)cc2s1)c1ccc(CN2CCOCC2)cc1,5%,-0.72
CC[C@@H]1Oc2ccc(NC(=O)COC)cc2CN(CCc2ccc(F)cc2)C1=O,13%,-1.21
CCc1nc(N2CC(OCc3ccccc3F)C2)ncc1C,2%,-0.35
CC(C)C(=O)Nc1ccc2c(c1)nc1n2CC(=O)N(C[C@@H]2CCCN3CCCC[C@H]23)C1,-21%,2.69
OC12CCCCC1C(c1ccc3c(c1)OCO3)NCC2 (configuration not stated),1%,-0.21
COc1cccc(CNc2ccc(N3CCOCC3)nc2)c1OC,-7%,1.19
c1ccc2[nH]c(Cn3cc([C@H]4CCOC4)nn3)cc2c1,-12%,2.28
Cc1cc(NC(=O)CS(=O)(=O)C(C)(C)C)nn1C,-7%,0.9
CCCC1(C)NC(=O)N(CCC2CCCCN2C)C1=O (configuration not stated),-13%,1.7
c1ccc(CN2CCC[C@H]2c2nc(-c3ccnc4ccnn34)no2)cc1,1%,-0.19
Cn1nc2nc(NC3CCCCC3)nc(-c3ccccc3Cl)c2c1N,-8%,1.55
CCCN(Cc1cc(-c2cccs2)on1)C(=O)Nc1ccccc1,-3%,0.44
CCC(C)(C)NC(=O)[C@H]1CCCN(C2CCN(Cc3ccncc3)CC2)C1,0%,-0.03
Cc1n[nH]nc1C(=O)NCCCC[C@H]1CCCO1,-26%,2.61
CC(C)Cn1cnnc1C1CCCN1CC(=O)NCC1CCCO1 (configuration not stated),5%,-0.75
Cc1ccc(CNC(=O)CC(C)(C)Cc2nnc3c(=O)n(-c4cccc(F)c4)ccn23)cc1,-3%,0.42
Cc1cccc(OCC(=O)N2CC[C@H](N3C(=O)COC3=O)C2)c1,-10%,1.65
CN(CC(N)=O)S(=O)(=O)C[C@]12CC[C@@H](CC1=O)C2(C)C,-5%,0.83
O=C(c1cnnn1-c1cccc(F)c1)N1CCCC12CCC2,-1%,0.15

SMILES,% Inhibition,Z score
COC[C@@]12CCN(C(=O)c3nccc4ccccc34)C[C@@H]1CN(C(C)=O)C2,-10%,1.2
CC(C)=CCN1C(=O)[C@@H]2CC[C@H]1CN(C(=O)Cc1cccnc1)C2,-4%,0.8
Cc1nn(C)c2ncc(-c3nc([C@H]4CCOC(C)(C)C4)no3)cc12,5%,-0.93
O=C(Nc1ccc2c(c1)C(=O)NC2)c1ccc(=O)[nH]n1,-2%,0.33
Cc1cc(C)cc(NC(=O)CCc2c(C)[nH]c(=O)c(C#N)c2C)c1,7%,-1.3
CC(=O)N1c2ccccc2C(=O)[C@@H]1N1CCN(c2ccc(Cl)cc2)CC1,-3%,0.45
COCCOCC(=O)N1CCc2c(c(-c3nncn3-c3ccccc3)nn2C)C1,4%,-0.54
CC[C@H](NCC1OCCO1)c1cccs1,-5%,0.63
Cc1c(Cl)cccc1S(=O)(=O)N(Cc1ccc(F)cc1)c1ccc2[nH]c(=O)[nH]c2c1,7%,-0.92
CC(=O)N1CC[C@H](C(=O)Nc2ccc3[nH]ncc3c2)C1,-11%,1.47
Cc1onc(C2CC2)c1C(=O)NCc1cccnc1OCC(F)F,-5%,0.62
Cn1c(Nc2c3ccccc3nc3ccccc23)cc(=O)n(C)c1=O,29%,-3.22
CCN(CCc1nccs1)Cc1nccn1C,-4%,0.38
CC(C)(C)CC(=O)N[C@H]1C[C@H]2C(=O)Nc3cc(Cl)ccc3C(=O)N2C1,31%,-3.48
CN(C(=O)c1csc2ccccc12)[C@H]1CS(=O)(=O)C[C@@H]1O,-6%,0.57
O=C(NCCCCN1CCOCC1)NCC1(c2ccccc2)CC1,-36%,4.18
CC(C)c1nnc(Cn2cnc3c2c(=O)n(C)c(=O)n3C)s1,-1%,0.08
O=S1(=O)NC(CN2CCN(CC(F)F)CC2)=Nc2ccccc21,-4%,0.8
C[C@H]1CCCN(c2c(C#N)c(=O)n(C)c(=O)n2C)CC1,-11%,1.44
COCCC1(c2noc(-c3cn([C@@H]4COC[C@H]4OC)nn3)n2)CCC1,5%,-0.68
Cc1ccc(CS(=O)(=O)Nc2ccc(N(C)C)nc2)cc1F,-7%,1.26
CCCCc1c(C)nc(N)nc1NCCc1cscn1,7%,-1.45

SMILES,% Inhibition,Z score
CC1(C)CCC[C@H](NC(=O)c2cccnc2O)C1,-5%,0.93
Cc1ccc(C)c(NC2=NC(N)=NC3(CCCCC3)N2)c1,1%,-0.07
CC1Cc2ccc(F)cc2CN1CC1CCCN(S(C)(=O)=O)C1 (configuration not stated),8%,-1.39
Cc1ncn(CCc2cn(C)nn2)c1C,-3%,0.5
CCOC(=O)C[C@H]1COCCN1Cc1c[nH]nc1-c1ccc2cc(OC)ccc2c1,4%,-0.38
COCc1nc([C@H]2CCOC2)cc(N(C)Cc2csc(C(C)C)n2)n1,0%,0.05
COC[C@H]1CCCN1[C@@H]1[C@H](O)[C@H](CO)O[C@@H]1CNS(=O)(=O)c1ccc(Cl)cc1,16%,-1.83
Cc1ccc(CCCCC(=O)N[C@@H](C)c2ccncc2)cc1,0%,-0.06
COc1cc(-c2noc(CCC(=O)O)n2)ccc1OCc1ccccc1,26%,-2.96
COc1ccccc1CNC(=O)CN1CCN(C)c2ccc(F)cc21,0%,0.05
Cc1cnc(N2CCn3nc(CO)cc3C2)nc1N(C)C,-23%,2.04
COc1cccc2sc(OC3CN(C(=O)c4cccs4)C3)nc12,-6%,0.96
O=C(N[C@@H](Cc1ccccc1)C(=O)O)C1COc2ccccc2O1 (some centres not stated),-9%,1.08
O=C(Cc1cccnc1)NC[C@H]1Cn2cc(-c3ccccc3)nc2CO1,-4%,0.67
CCN(C)c1ccccc1CNC(=O)NC1CC2CCC1O2 (configuration not stated),4%,-0.36
COc1cn(CC(N)=O)c(CN2CCCCC2)cc1=O,-7%,1.27
CC(C)(C)[C@@H]1CN(C(=O)c2c[nH]nn2)CCO1,-14%,2.15
CCCCCn1c(NCc2cc(Cl)ccc2O)nc2ccccc21,35%,-2.27
CC1(C)CCN(C(=O)[C@@H]2NCc3ncncc32)CC1,-5%,1
O=C(COc1cccc2c1CCC[C@@H]2O)Nc1cccc(S(=O)(=O)N2CCCC2)c1,-13%,1.72
